# Measurements: PubChem BioAssay (NCATS)
# Where “and” joins values, the source holds several entries; their conditions need not be identical. Equal entries are not always repeated. Inconclusive results, whose numbers are uncertain, are shown with a selection of clear calls. Where a call stands in place of a potency, no number is given. Where the call is inconclusive, the potency comes from a doubtful curve fit. Calls of active or inactive are those of the source. Calls follow the shape of the dose curve; as a rule, active = well fitted curve in the direction sought with a large enough effect; inconclusive = small, poorly fitted or top-dose-only effect, or another doubt; inactive = no such curve, though single readings can be large; an effect the other way counts as inactive or inconclusive.
# Test system: UISO
# Assay: qHTS assay to identify novel small-molecules to repurpose for Merkel cell carcinoma treatment (AID 1296009); also: nearly all actives have a fitted effect of over 60% in size
# Conditions: MCC and control cell lines, CellTiter-Glo viability, 72 h; series mostly up to 46 µM
# How it was run: (§1)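 CellTiter-Glo luminescence after 72 hr compound exposure at 37 degree celsius gave cell viability. Libraries NPC and MIPE were run as 8- and 11-point dose responses; RLUs normalized to DMSO (negative) and no-cell (cytotoxicity) controls.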
# Potency is read from the fitted curve at half-maximal effect; tags tell the direction and shape of the fitted curve.
row,SMILES,Potency
1,CN(C)C(=O)COC(=O)Cc1ccc(OC(=O)c2ccc(N=C(N)N)cc2)cc1,inactive
2,O=C1CCC[C@@H]2[C@H]3CCC[N+]4([O-])CCC[C@@H](CN12)[C@@H]34 (some centres not stated),inactive
3,O=c1[nH]c(-c2ccc(C(F)(F)F)cc2)nc2c1CSCC2,"inconclusive: 4.69 µM [inhibitor, full curve]"
4,O=C1C(c2c(O)[nH]c3ccccc23)=Nc2ccccc21,"inconclusive: 0.0148 µM [inhibitor, full curve]"

# Test system: WaGa
# Assay: as above
# Conditions: MCC and control cell lines, CellTiter-Glo viability, 72 h; series mostly up to 46 µM
# How it was run: as §1
row,SMILES,Potency
1,COc1cc(C=CC(=O)O)ccc1O,inactive
2,Nc1cccc2c1CN(C1CCC(=O)NC1=O)C2=O (configuration not stated),"inconclusive: 241 nM [inhibitor, full curve] and inconclusive: 2.66 µM [inhibitor, full curve, poor fit]"
3,Nc1nc(=O)n([C@H]2CSC(CO)O2)cc1F (some centres not stated),inactive
4,C[C@@H](NCc1cc2ccccc2[nH]1)c1cccc2ccccc12,inactive
5,O=C(NCCCCN1CCOCC1)c1cc2ccccc2o1,inactive
6,CS(=O)(=O)Nc1ccc([N+](=O)[O-])cc1Oc1ccccc1,"inconclusive: 13.2 µM [inhibitor, partial curve]"
7,O=C1CSC(=O)N1C(CCc1ccncc1)COc1ccc(-c2cccc([N+](=O)[O-])c2)cc1 (configuration not stated),active: 16.6 µM
8,Clc1cccc(-n2nnnc2NCc2ccccc2Oc2ccccn2)c1Cl,inactive
9,COc1ccc(CCN(C)CCCC(C#N)(c2ccc(OC)c(OC)c2)C(C)C)cc1OC (configuration not stated),inactive
10,CN(C)CC(=O)N1CCC(c2ccc(NC(=O)c3ncc(C#N)[nH]3)c(C3=CCCCC3)c2)CC1,"inconclusive: 26.4 µM [inhibitor, single point]"
11,CCN1CCCC1CNC(=O)c1cc(S(=O)(=O)CC)c(N)cc1OC (configuration not stated),"inconclusive: 18.7 µM [inhibitor, partial curve, poor fit]"
12,Cc1cc(-c2nnc3n2CCCCC3)c(C)n1-c1ccccc1,"inconclusive: 20.9 µM [inhibitor, single point]"
13,CC(=O)NC(CS)C(=O)O (configuration not stated),inactive
14,CN(C)CCN(Cc1ccc(Cl)cc1)c1ccccn1,"inconclusive: 26.6 µM [inhibitor, single point]"
15,O=C(c1ccc(F)cc1)C1CCN(CCn2c(=O)[nH]c3ccccc3c2=O)CC1,inactive
16,CC1=NN(c2ccccc2)C(=O)C1,"inconclusive: 29.9 µM [inhibitor, single point]"
17,O=[N+]([O-])c1cn2c(n1)OC[C@@H](OCc1ccc(OC(F)(F)F)cc1)C2,inactive
18,CCC(c1ccc(O)cc1)C(CC)c1ccc(O)cc1 (configuration not stated),"inconclusive: 11.8 µM [inhibitor, full curve]"
19,Cc1nnc(C(=O)NC(C)(C)c2nc(C(=O)NCc3ccc(F)cc3)c(O)c(=O)n2C)o1,inactive

# Test system: C33A
# Assay: Primary qHTS to identify gynecologic anti-cancer compounds using libraries of approved drugs and bioactive compounds (AID 1345084); also: nearly all actives have a fitted effect of over 55% in size
# Conditions: Gynecologic cancer cell panel viability, ATPlite luminescence, 48 h; series mostly up to 57.5 µM
# How it was run: (§2)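 48 h compound exposure at 37 C, 5% CO2; five-point qHTS. ATPlite luminescence readout of cell ATP.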
row,SMILES,Potency
1,Cc1cn([C@H]2C[C@H](N=[N+]=[N-])[C@@H](CO)O2)c(=O)[nH]c1=O,inactive
2,O=C(O)c1cccnc1,inactive
3,CC(C)(C)c1cc(NC(=O)Nc2ccc(-c3cn4c(n3)sc3cc(OCCN5CCOCC5)ccc34)cc2)no1,inactive
4,Cc1c(-c2ccc(O)cc2)n(Cc2ccc(OCCN3CCCCCC3)cc2)c2ccc(O)cc12,"inconclusive: 39.8 µM [cytotoxic, single point]"
5,CN(C)CC(=O)N1CCC(c2ccc(NC(=O)c3ncc(C#N)[nH]3)c(C3=CCCCC3)c2)CC1,inactive
6,Cc1cc(C(C)(C)C)cc(C)c1CC1=NCCN1,inactive
7,CN(c1nccc(=O)[nH]1)C1CCN(c2nc3ccccc3n2Cc2ccc(F)cc2)CC1,"inconclusive: 17.8 µM [rising, partial curve, poor fit]"
8,Cn1c(=O)c2c(ncn2C)n(C)c1=O,inactive
9,CN1CCN2c3ccccc3Cc3ccccc3C2C1 (configuration not stated),"inconclusive: 39.8 µM [cytotoxic, single point]"
10,O=c1[nH]c(-c2ccc(C(F)(F)F)cc2)nc2c1CSCC2,"inconclusive: 31.6 µM [cytotoxic, single point]"
11,O=C1C(c2c(O)[nH]c3ccccc23)=Nc2ccccc21,inactive

# Test system: CAOV3
# Assay: as above
# Conditions: Gynecologic cancer cell panel viability, ATPlite luminescence, 48 h; series mostly up to 57.5 µM
# How it was run: as §2
row,SMILES,Potency
1,Cc1ccc(C(=O)Nc2ccc(CN3CCN(C)CC3)c(C(F)(F)F)c2)cc1C#Cc1cnc2cccnn12,"inconclusive: 10 µM [cytotoxic, partial curve, poor fit]"
2,CC(C)(C)c1cc(NC(=O)Nc2ccc(-c3cn4c(n3)sc3cc(OCCN5CCOCC5)ccc34)cc2)no1,"inconclusive: 28.2 µM [cytotoxic, partial curve, poor fit]"
3,Cc1c(-c2ccc(O)cc2)n(Cc2ccc(OCCN3CCCCCC3)cc2)c2ccc(O)cc12,"inconclusive: 28.2 µM [cytotoxic, single point]"
4,CN(C)C(=O)COC(=O)Cc1ccc(OC(=O)c2ccc(N=C(N)N)cc2)cc1,inactive
5,COc1ccc2c(c1)c(CC(=O)O)c(C)n2C(=O)c1ccc(Cl)cc1,inactive
6,CC(=O)NC[C@H]1CN(c2ccc(N3CCOCC3)c(F)c2)C(=O)O1,inactive
7,C[C@H](c1ccc(F)cc1CCCC(=O)O)N(c1cc(F)ccc1F)S(=O)(=O)c1ccc(Cl)cc1,inactive
8,O=C1CCC[C@@H]2[C@H]3CCC[N+]4([O-])CCC[C@@H](CN12)[C@@H]34 (some centres not stated),inactive
9,CN(C)CC(=O)N1CCC(c2ccc(NC(=O)c3ncc(C#N)[nH]3)c(C3=CCCCC3)c2)CC1,inactive
10,Cc1cc(C(C)(C)C)cc(C)c1CC1=NCCN1,inactive
11,CCCCC(=O)O[C@]1(C(=O)CO)[C@@H](C)C[C@H]2[C@@H]3CCC4=CC(=O)C=C[C@]4(C)[C@@]3(F)[C@@H](O)C[C@@]21C,"inconclusive: 39.8 µM [cytotoxic, single point]"
12,Cn1c(=O)c2c(ncn2C)n(C)c1=O,"inconclusive: 0.316 µM [rising, full curve, poor fit]"
13,O=P(O)(O)C(O)(Cc1cccnc1)P(=O)(O)O,inactive
14,O=C(c1ccc(F)cc1)C1CCN(CCn2c(=O)[nH]c3ccccc3c2=O)CC1,inactive
15,CN1CCN2c3ccccc3Cc3ccccc3C2C1 (configuration not stated),"inconclusive: 39.8 µM [cytotoxic, single point]"
16,Oc1ccc(C2CNCCc3c2cc(O)c(O)c3Cl)cc1 (configuration not stated),"inconclusive: 0.141 µM [rising, full curve, poor fit]"
17,O=c1[nH]c(-c2ccc(C(F)(F)F)cc2)nc2c1CSCC2,"inconclusive: 35.5 µM [cytotoxic, single point]"
18,Cc1nnc(C(=O)NC(C)(C)c2nc(C(=O)NCc3ccc(F)cc3)c(O)c(=O)n2C)o1,"inconclusive: 3.98 µM [cytotoxic, single point]"
